Data from patent US20150175687A1, “MYOSTATIN BINDING AGENTS” (published 2015).
Where a chain is given by its changes, count along the chain named. Where two headings read alike, the source gives them in different places.

B1: Myostatin-TN12-34 peptibody (Fc fusion)
chain: MAHWCEQGPWRYGNICMAYGGGGG[letters of human IgG1 Fc left out]GGGGGAHWCEQGPWRYGNICMAY
B2: mL2-7 peptibody (Fc fusion)
chain: MGAQRMEMLESLFELLKEIVPMSKAGLEGGGGG[letters of human IgG1 Fc left out]
B3: mL2-9 peptibody (Fc fusion)
chain: B2 chain with R5Q, M8L, E10D, M22K, K24Q, A25P, G26A
B4: Myostatin-2xTN8-19 kc peptibody (Fc fusion)
chain: [letters of human IgG1 Fc left out]GSGSATGGSGSTASSGSGSATGQGHCTRWPWMCPPYGSGSATGGSGSTASSGSGSATGQGHCTRWPWMCPPY
B5: Myostatin-Linear-20 peptibody (Fc fusion)
chain: MYREMSMLEGLLDVLERLQHYGGGGG[letters of human IgG1 Fc left out]

Assays:
[1] = biological target: T1, recombinant mature myostatin (human, UniProt O14793); test: cell-based or functional assay
[2] = biological target: T1, recombinant mature myostatin; test: cell-based or functional assay; remark: listed apart in the source
[3] = biological target: T1, recombinant mature myostatin; test: BIAcore, myostatin immobilized
[4] = biological target: T1, recombinant mature myostatin; test: KinExA solution based assay or BIAcore (not told which)

| Binder | IC50 (nM), myostatin-induced luciferase, C2C12 pMARE-luc [1] | IC50 (nM), myostatin-induced luciferase, C2C12 pMARE-luc [2] | further results |
| --- | --- | --- | --- |
| B1 | ~30 nM | – | – |
| B2 | – | 90.2 nM | – |
| B3 | – | 106 nM | – |
| B4 | – | – | Kd [3]: ~2 nM; Kd [4]: > 1 nM |
| B5 | ~11 nM | – | – |
